# In PubChem BioAssay AID1240 (Sanford-Burnham Center for Chemical Genomics, 2008):
# About 800 (1.6%) of roughly 50,000 compounds showed an effect of 50% or more. This is one part of the list.
# Target: Bcl-2-like protein 10 (Homo sapiens) (UniProt Q9HD36)
# Assay: Phenotype converters, Bcl-B/TR3 peptide binding displacement, primary biochemical FP (AID 1240);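 note: 0% = Bcl-B with tracer peptide and DMSO and 100% = tracer peptide lacking Bcl-B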
# Conditions: GST-Bcl-B / FITC-TR3 peptide fluorescence polarization; stronger effect = higher value; compound at 3.75 mg/L
# Chain of UniProt Q9HD36 (Q9HD36 whole entry, looked up): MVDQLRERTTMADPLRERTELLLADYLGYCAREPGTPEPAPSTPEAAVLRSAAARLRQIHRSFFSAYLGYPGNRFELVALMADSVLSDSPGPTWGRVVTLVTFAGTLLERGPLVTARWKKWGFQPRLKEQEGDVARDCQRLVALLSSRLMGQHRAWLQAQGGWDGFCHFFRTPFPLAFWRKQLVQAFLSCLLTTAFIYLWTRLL
row,SMILES,displacement [%]
1,COc1ccc2nc(Nc3nc4ccccc4c(=O)[nH]3)nc(C)c2c1,3.1
2,O=C(CN(c1cccc([N+](=O)[O-])c1)S(=O)(=O)c1ccccc1)NCCSCc1ccccc1Cl,-12
3,Cc1ccc(C(=O)Oc2ccc(C(=S)N3CCOCC3)cc2)cc1,10.9
4,COC(=O)c1ccc(/C=C2\N=C(c3ccc(C(C)(C)C)cc3)OC2=O)cc1,11.1
5,Oc1cnc2ccccc2c1CN1CCOCC1,10.1
6,O=C(Nc1ccc(I)cc1Cl)c1ccc([N+](=O)[O-])cc1Cl,-1.3
7,COCCNc1nc(-c2ccc(Cl)cc2)nc2ccccc12,-11.6
8,CCOC(=O)c1ccc(NC(=O)Cc2ccc(Cl)cc2)cc1,-8.1
9,O=c1[nH]cnc2c1C(c1ccc(Cl)cc1)c1c(nc[nH]c1=O)O2,-1.7
10,CC1=C(C(=O)OC(C)C)C(c2cccc(Br)c2)NC(=O)N1 (stereo not given),0.4
11,CCOC(=O)c1c(-c2ccccc2)oc2cc(Br)c(OS(C)(=O)=O)cc12,8.6
12,O=C(COc1ccc2ccccc2c1)N1CCc2ccccc21,-1.3
13,COc1ccc(C2=NC(=Cc3cccc4ccccc34)C(=O)O2)cc1,108
14,COc1ccc(OC)c(NC(=S)NC(NC(=O)c2ccc(Br)cc2)C(Cl)(Cl)Cl)c1 (stereo not given),-7
15,Cn1c(/C=C/c2ccc3c(c2)OCO3)nc2ccccc2c1=O,1.3
16,CC(C)CN1C(=O)/C(=C/c2cccc([N+](=O)[O-])c2)SC1=S,10.8
17,Cc1cccc(-c2cc(NC(=O)c3ccc(F)cc3)n[nH]2)c1,12.6
18,CCc1cc(=O)oc2cc(OC(C)=O)ccc12,12.3
19,CCOc1cc(C(=O)Nc2ccc3c(c2)OCO3)cc(OCC)c1OCC,-5.5
20,COc1cccc(C(=O)Oc2ccc3c(C)cc(=O)oc3c2C(C)=O)c1,-1.9
21,O=C(Nc1ccc(Cl)c(C(F)(F)F)c1)c1cccc(I)c1,8.8
22,Cc1sc(NC(=O)Nc2ccccc2)nc1C12CC3CC(CC(C3)C1)C2,3

row,SMILES,displacement [%]
1,CCSc1nc2c(C)c(O)c(C)cc2[nH]1,10.3
2,Cc1cccc(N2C(=O)CC(N3CCN(c4ccc(F)cc4)CC3)C2=O)c1 (stereo not given),-0.1
3,C=C(Br)Cn1c(C)nc2ccccc21,14.6
4,Cc1sc2ncnc(N/N=C/c3ccc(Cl)cc3Cl)c2c1C,3.8
5,O=C(NCCO)C(=O)NC1CCCCC1,7.6
6,O=C1S/C(=C/c2ccc(-c3ccc(F)cc3)o2)C(=O)N1c1ccccc1,12.2
7,Cc1c(NC(=O)c2cccs2)cccc1C(=O)O,0.8
8,COC(=O)C1=C(C)N(c2cccc(OC)c2)C(=O)/C1=C\c1ccc(O)cc1,5.3
9,CC(=O)c1cccc(NC(=O)/C(=C\c2cccs2)NC(=O)c2ccccc2)c1,7
10,CCc1c(C)nc(Nc2nc(C)c3ccccc3n2)[nH]c1=O,-10.2
11,O=C(O)CCCC(=O)N1CCN(C(c2ccccc2)c2ccccc2)CC1,-5.1
12,Cc1cc(/C=C2\C(=O)NC(=S)N(c3cccc(Cl)c3Cl)C2=O)c(C)n1C,0.8
13,Cc1ccc2nsnc2c1NC(=O)COc1ccc(Cl)cc1Cl,-0.9
14,COc1ccc(NC(=O)c2cccc([N+](=O)[O-])c2C)cc1OC,1.9
15,COc1ccc(Br)cc1CN1CCN(S(=O)(=O)c2ccccc2)CC1,11.2
16,O=C1C=C(Nc2cccc(O)c2)CC(c2ccco2)C1 (stereo not given),14.1
17,Cc1ccc(-c2nc(Nc3ccccc3)s[n+]2CS(=O)(=O)c2ccccc2)cc1,14
18,COc1cc(-c2ccc(NC(=O)c3cccc(F)c3)c(OC)c2)ccc1NC(=O)c1cccc(F)c1,37
19,O=C1NC(=O)/C(=C/c2ccc(OC(=O)c3ccccc3I)cc2)S1,-1
20,CCn1c2ccccc2c2ccc(/C=N/NC(=O)c3ccc(O)cc3O)cc21,-43.4
21,CCOc1ccc(N2C(=O)NC(=O)/C(=C\c3ccc(Br)o3)C2=O)cc1,0.6
22,CCn1c2ccccc2c2nnc(-n3nc(C)c(Cc4ccccc4)c3C)nc21,-3.5

row,SMILES,displacement [%]
1,O=C(Nc1ccc(Br)cc1)/C(=C/c1cccc([N+](=O)[O-])c1)NC(=O)c1cccs1,-4.2
2,N/C(Cc1ccc(Cl)cc1Cl)=N\OC(=O)COc1ccccc1,1.1
3,CS(=O)(=O)N1CCN(C(=O)COc2ccccc2)CC1,13.6
4,O=C(N/C(=C/c1ccc(Cl)cc1)c1nc2ccccc2[nH]1)c1ccco1,-4.9
5,NS(=O)(=O)c1ccc(NC(=O)Cc2cccc3ccccc23)cc1,3.2
6,COc1ccc(NC(=O)c2ccco2)cc1,3.1
7,COc1ccc(C(=O)Nc2ccccc2)cc1S(=O)(=O)NC1CCCCC1,-8.2
8,COc1ccc(CCN2C(=O)CC(C(C)c3ccccc3)C2=O)cc1OC (stereo not given),13.1
9,Cc1nc2c(=O)[nH]c3ccccc3c2o1,-5
10,CCN(CC)C(=S)SCC(=O)Nc1cc(C)ccc1C,11.8
11,COc1ccc(N(CC(=O)N2CCCC2)S(=O)(=O)c2ccccc2[N+](=O)[O-])c(OC)c1,3.9
12,O=C(O)CSc1nc2ccccc2c(=O)[nH]1,2.9
13,Cc1cccc(NC(=O)CSc2ncn[nH]2)c1,9.7
14,O=C(Nc1ccccc1-c1ccccc1)c1cccc(I)c1,7.3
15,C=CCc1ccccc1OCCOc1cccc(/C=C2/SC(=S)N(C)C2=O)c1,3.5
16,O=C(NN1C(=O)/C(=C/c2ccc(F)cc2)SC1=S)c1ccncc1,-33.7
17,Cc1ccc(OCC(=O)Nc2ccc(C)c(Cl)c2)c(C)c1,3.2
18,COC(=O)c1ccc(NC(=O)C2(C)CC3c4ccccc4C2c2ccccc23)cc1 (stereo not given),6.2
19,CCOc1ccc(N2C(=O)S/C(=C\C=C\c3ccccc3)C2=O)cc1,2.6
20,CC1=CCC2C(=O)N(c3cccc([N+](=O)[O-])c3)C(=O)C2C1 (stereo not given),25.7
21,C/C(=N/OCO/N=C(/C)c1ccc(F)cc1)c1ccc(F)cc1,15.9
22,CCOC(=O)c1ccccc1NC(=O)c1cccc(N(C)C)c1,2.6

row,SMILES,displacement [%]
1,CCCCOc1ccc(OCCNS(=O)(=O)N(C)C)cc1,-14.3
2,O=C(CSc1nc2ccc([N+](=O)[O-])cc2s1)NCCc1ccccc1,7.9
3,Cc1ccnc(NS(=O)(=O)c2ccccc2)c1,-12.2
4,CCOc1cc(C2NC(=O)N(C)C(C)=C2C(=O)OCCc2ccccc2)ccc1O (stereo not given),11.8
5,O=C(CCNc1cccc(F)c1)c1cccc([N+](=O)[O-])c1,-13
6,COc1cc(OC)cc(C(=O)Nc2cc(Cl)ccc2C)c1,-9
7,CC(C)(C)c1ccc(OCC(=O)N/N=C/c2ccc(O)c([N+](=O)[O-])c2)cc1,6.3
8,C=CCN1C(=O)/C(=C\c2ccccc2OCc2ccc(Cl)cc2)SC1=S,23.3
9,Cc1ccc(Nc2ccc([N+](=O)[O-])ccc2=O)cc1,136
10,CCOc1ccc2nc(SCc3ccc(Cl)cc3)nc(C)c2c1,8.6
11,Cc1nn(Cc2cccc(Cl)c2)c(N)c1-c1ccccc1,-9
12,Cc1ccc(-c2cc(N)n(Cc3ccc(Cl)cc3)n2)cc1,9.1
13,CN(C)c1ccc(NS(=O)(=O)c2ccc(N3C(=O)CCC3=O)cc2)cc1,19.2
14,CCOC(=O)c1ccccc1NC(=O)c1ccc(CN2CCc3ccccc3C2)cc1,5.9
15,COc1ccc(C(=O)N2CCN(Cc3cccc(Oc4ccccc4)c3)CC2)cc1OC,6.4
16,CCCOC(=O)c1cccc(NC(=O)COc2ccccc2Cl)c1,-5.3
17,CCN(CC)CCCCCCOc1ccc(F)cc1,8.4
18,Cc1ccc(N2C(=O)CC(N3CCN(c4ccccn4)CC3)C2=O)cc1 (stereo not given),6.7
19,O=C(CCC1CCCC1)Nc1cc(Cl)ccc1Cl,4.2
20,COc1ccc(C2CC(C(F)(F)F)n3ncc(C(=O)O)c3N2)cc1OC (stereo not given),8.8
21,CC(C)CNc1nc(-c2ccccc2)nc2ccccc12,3.3
22,Cc1ccc(S(=O)(=O)Nc2c(C)cc(C)cc2C)c(C)c1,12.7

row,SMILES,displacement [%]
1,Cc1ccc(N2C(=O)CC(N3CCC(O)(c4ccc(Br)cc4)CC3)C2=O)cc1 (stereo not given),6.2
2,COc1ccc(Cl)cc1C(=O)Nc1ccc(NC(=O)c2ccc(C(C)(C)C)cc2)cc1,16.7
3,CC1CCN(C(=O)c2ccc(Cl)cc2)CC1,-13.3
4,Cc1c(NC(=O)c2ccc(-c3ccccc3[N+](=O)[O-])o2)cccc1-c1nc2ncccc2o1,14.4
5,COc1ccc(/C=C2/SC(N)=NC2=O)c(OC)c1,-3.2
6,CC1CN(C(=O)c2ccc([N+](=O)[O-])cc2)CC(C)O1 (stereo not given),15
7,CCOc1ccc(/C=C2\C(=O)NC(=S)N(c3ccc(CC)cc3)C2=O)cc1OC,-8
8,O=C1NC(=O)N(c2ccccc2)C(=O)/C1=C\c1ccc(-c2ccc(F)cc2)o1,137
9,CN1CCN(S(=O)(=O)c2ccc(Br)c3ccccc23)CC1,-4.7
10,CCCc1c(C)nc2ccc(Br)cc2c1SCC(=O)O,-3
11,COc1cc(C(=O)N/C(=C/c2ccc(Br)cc2)C(=O)NC(C)C(=O)O)cc(OC)c1OC (stereo not given),-5.8
12,COc1ccccc1N1CCN(C(=O)c2ccc(CN(c3cc(Cl)ccc3C)S(=O)(=O)c3ccccc3)cc2)CC1,-18.5
13,Cc1cc(C)nc(N2C(=O)c3ccc(C(=O)O)cc3C2=O)n1,-7.7
14,COc1cc(C2/C(=C(/O)c3ccccc3)C(=O)C(=O)N2c2cccc(C)c2)ccc1O (stereo not given),2.3
15,CCOC(=O)c1ccc(N=CC2=C(O)CC(c3ccccc3)CC2=O)cc1 (stereo not given),-15.4
16,Cc1sc(CO)c(Sc2ccccc2)c1C(=O)O,9.1
17,Cc1cc(OCc2nc(-c3ccccc3)no2)ccc1Br,-4.6
18,CC1=NN(c2ccc(C(=O)O)cc2)C(=O)/C1=C\c1cccs1,14.2
19,O=C1c2ccccc2C(=O)N1CCCCN(C(=O)Nc1ccc([N+](=O)[O-])cc1)c1ccc(Cl)cc1,15.9
20,CC1=C(C(=O)OCCCc2ccccc2)C(c2ccccc2Br)CC(=O)N1 (stereo not given),-9.2
21,Cc1cc(C)cc(N2C(=O)NC(=O)/C(=C\c3ccc(Br)cc3)C2=O)c1,6.3
22,COc1ccc(COC(=O)C2=C(C)NC3=C(C(=O)CC(C)(C)C3)C2c2ccc(C)o2)cc1 (stereo not given),-1.8
